{"source": "PubChem BioAssay AID1159614", "about": "(National Center for Advancing Translational Sciences (NCATS), 2016)", "note": "The whole screen tested about 45,000 compounds, of which about 65 (0.1%) were called active. Calls follow the shape of the dose curve; as a rule, active = well fitted activation curve with a large enough effect; inconclusive = small, poorly fitted or top-dose-only effect; inactive = no such curve, though single readings can be large or run the other way. The list shows a part of the results.", "data": [{"molecular_target": "Galactocerebrosidase (Homo sapiens) (UniProt P54803)", "sequence (P54803 whole entry, looked up)": "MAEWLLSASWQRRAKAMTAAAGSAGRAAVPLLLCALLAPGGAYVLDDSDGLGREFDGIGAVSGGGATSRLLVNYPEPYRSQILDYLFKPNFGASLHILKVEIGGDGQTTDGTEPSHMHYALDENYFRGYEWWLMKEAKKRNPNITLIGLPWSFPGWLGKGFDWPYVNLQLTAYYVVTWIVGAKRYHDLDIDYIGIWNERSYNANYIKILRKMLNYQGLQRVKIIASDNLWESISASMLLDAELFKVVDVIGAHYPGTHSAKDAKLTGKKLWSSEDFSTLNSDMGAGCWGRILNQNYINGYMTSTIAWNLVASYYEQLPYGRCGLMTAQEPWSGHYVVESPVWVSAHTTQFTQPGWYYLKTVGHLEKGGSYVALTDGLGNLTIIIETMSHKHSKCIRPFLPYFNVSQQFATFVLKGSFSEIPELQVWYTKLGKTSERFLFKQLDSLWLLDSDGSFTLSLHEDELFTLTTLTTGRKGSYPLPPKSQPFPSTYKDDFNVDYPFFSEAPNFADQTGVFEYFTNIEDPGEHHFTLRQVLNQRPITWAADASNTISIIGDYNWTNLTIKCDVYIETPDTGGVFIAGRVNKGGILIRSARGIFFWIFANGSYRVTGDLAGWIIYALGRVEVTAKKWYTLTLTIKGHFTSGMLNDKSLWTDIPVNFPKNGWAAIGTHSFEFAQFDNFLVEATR", "experiment": "A Novel Cell-Based Assay to Identify Small Molecules for B -Galactocerebrosidase; also: 0% is about no effect; nearly all actives have a fitted effect of over 65% in size", "conditions": "145M-Twi-hGALC-G270D cells (Twitcher mouse brain line with human GALC G270D), HMU-beta-Gal fluorescence, 48 h; series mostly up to 57.5 µM; activation: at the top concentration", "in_short": "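Mutant human GALC (G270D), stably expressed in a Twitcher mouse brain cell line lacking endogenous GALC, is measured in live-treated cells via 6-hexadecanoylamino-4-methylumbelliferyl-β-galactoside hydrolysis (0.1 mM final, pH 5.2) with fluorescent detection.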", "values": [{"compound": "COc1ccc(CNC(=O)CCc2nc(-c3ccc(C)cc3)no2)c(OC)c1", "activation": "inactive: -35.6%"}, {"compound": "CC1=C(c2ccc(C)c(C)c2)S(=O)(=O)N=C1N1CCC(C(=O)NC(C)Cc2ccco2)CC1", "note": "(stereo not drawn)", "activation": "inactive: -13.5%"}, {"compound": "Cc1cc(C)cc(-n2c(SCC(=O)Nc3ccc4c(c3)OCCO4)nc3c([nH]c4ccccc43)c2=O)c1", "activation": "inactive: -12.1%"}, {"compound": "Cn1cc(S(=O)(=O)c2ccccc2)c(=O)c2cc(F)c(N3CCCCCC3)cc21", "activation": "inactive: 0.795%"}, {"compound": "Cc1ccc(NC(=O)c2ccc(NC(=O)N3CCSc4ncccc43)cc2)c(C)c1", "activation": "inactive: -3.39%"}, {"compound": "COc1ccc(C)cc1-n1cnc2cc(C(=O)NC3CCCC3)ccc21", "activation": "inactive: -16.4%"}, {"compound": "COc1cc(C(=O)Nc2nonc2-c2ccc(C)c(C)c2)cc(OC)c1OC", "activation": "inactive: -16.6%"}, {"compound": "CCOC(=O)c1c(C)oc2nc(C)nc(NCc3ccccc3OC)c12", "activation": "inactive: -17.6%"}, {"compound": "COC(=O)C(c1ccccc1Cl)N1CCc2sccc2C1", "note": "(stereo not drawn)", "activation": "inactive: -16.9%"}, {"compound": "COc1ccccc1NC(=O)Cn1c(=O)n(CCCCCC(=O)NCc2ccccc2)c(=O)c2sccc21", "activation": "inactive: -18.5%"}, {"compound": "Cc1ccccc1Nc1c(-c2cccs2)nc2cccc(C)n12", "activation": "inactive: -7.89%"}, {"compound": "O=C(NCC1CN(c2ccc(N3CCOCC3=O)cc2)C(=O)O1)c1ccc(Cl)s1", "note": "(stereo not drawn)", "activation": "inactive: -11.9%"}, {"compound": "Cc1cc(C(=O)Nc2c(C)nc3ccccn3c2=O)ccc1[N+](=O)[O-]", "activation": "inactive: -13.7%"}, {"compound": "CCOc1ccc(/C=C/c2nc(C#N)c(NCCc3ccccc3)o2)cc1", "activation": "inactive: 3.81%"}, {"compound": "O=C(CSc1nc2c([nH]c3ccccc32)c(=O)n1-c1ccc(Cl)cc1)NCC1CCCO1", "note": "(stereo not drawn)", "activation": "inactive: 2.37%"}, {"compound": "Cc1ccc(-n2c(SCC(N)=O)nc3c(oc4ccccc43)c2=O)cc1C", "activation": "inactive: -11.3%"}, {"compound": "CCOc1cc(CNC(=O)Cn2c(-c3cccs3)cc3cc(F)ccc32)ccc1OC", "activation": "inactive: -5.66%"}, {"compound": "O=C(Cn1c(=O)oc2cc(S(=O)(=O)NCc3ccccc3)ccc21)NCc1ccc(Cl)cc1", "activation": "inactive: -5.21%"}, {"compound": "COc1cccc(C(=O)Nc2ccccc2-c2nnc(-c3cccc(OC)c3)o2)c1", "activation": "inactive: -20.1%"}, {"compound": "CC(=O)Nc1ccc(S(=O)(=O)NC2(C(F)(F)F)NC(=O)N(CCc3ccc(F)cc3)C2=O)cc1", "note": "(stereo not drawn)", "activation": "inactive: -20.5%"}, {"compound": "Cc1cccc(NS(=O)(=O)c2ccc3c(c2)CCN3C(=O)C2CCC2)c1", "activation": "inactive: -9.58%"}, {"compound": "COC(=O)C1CCN(S(=O)(=O)c2cc3c4c(c2)CC(=O)N4CCC3)CC1", "activation": "inactive: -23.6%"}, {"compound": "CCN(C)C(=O)Oc1cccc([C@H](C)N(C)C)c1", "activation": "inactive: -2.39%"}, {"compound": "O=C(c1cccs1)N1CCCc2cc(NS(=O)(=O)c3ccc(F)cc3F)ccc21", "activation": "inactive: -19%"}, {"compound": "CCCN(CCC)CCCNC(=O)Cn1cnc2sc(C)c(S(=O)(=O)N3CCC(C)CC3)c2c1=O", "activation": "inactive: -16%"}, {"compound": "O=C(Nc1cccc(F)c1)c1ccc(-c2ccccc2)s1", "activation": "inactive: -7.86%"}, {"compound": "Cc1ccc(C)c(N2CCN(Cc3csc(C)c3)CC2)c1", "activation": "inactive: -0.38%"}, {"compound": "Cc1ccc(C)c(NC(=O)Cn2c(=O)n(Cc3ccccc3)c(=O)c3oc4ccccc4c32)c1", "activation": "inactive: -16.9%"}, {"compound": "Nc1ccc(S(=O)(=O)Nc2ccnn2-c2ccccc2)cc1", "activation": "inactive: -4.46% [at 23.8 µM]"}, {"compound": "CCOCCCn1c(=N)c(C(=O)NCC2CCCO2)cc2c(=O)n3cccc(C)c3nc21", "note": "(stereo not drawn)", "activation": "inactive: -17.5%"}, {"compound": "COC(=O)C1=C(c2ccccc2)c2ccccc2S(=O)(=O)N1CC(=O)Nc1ccccc1Cl", "activation": "inactive: -1.15%"}, {"compound": "Cc1ccc(CN2C(=O)c3ccccc3Sc3ccc(C(=O)OCc4ccco4)cc32)cc1", "activation": "inactive: -15.1%"}, {"compound": "COc1ccc(Br)cc1CNC(=O)c1ccc2c(c1)N(Cc1ccc(C)cc1)CCS2", "activation": "inactive: -12.3%"}, {"compound": "Cc1ccc(S(=O)(=O)c2cn(Cc3ccccc3Cl)c3ccc(F)cc3c2=O)cc1", "activation": "inactive: 12.2%"}, {"compound": "COc1ccc2c(c1)NC(c1cccnc1)=NC(c1ccc(F)cc1)=N2", "activation": "inactive: -21.4%"}, {"compound": "COc1ccccc1-c1noc(-c2ccc(NC(C)C)c([N+](=O)[O-])c2)n1", "activation": "inactive: 11.2%"}, {"compound": "COc1ccc(Cn2c(=O)[nH]c3cc(C(=O)N4CCN(c5cc(Cl)ccc5C)CC4)ccc3c2=O)cc1", "activation": "inactive: -2.03%"}, {"compound": "O=C(CCCCn1c(=O)c2ccccc2n(CC(=O)Nc2cccc(F)c2)c1=O)NCCc1ccccc1", "activation": "inactive: -16.5%"}, {"compound": "COc1ccc2[nH]cc(S(=O)(=O)c3ccc(C)c(C)c3)c(=O)c2c1", "activation": "inactive: -2.61%"}, {"compound": "COc1ccc(-c2nn(-c3cccc(F)c3)c3c2cnc2cc(OC)c(OC)cc23)cc1", "activation": "inactive: -1.82%"}, {"compound": "O=C(NC1CC(=O)N(c2ccc(F)cc2)C1)C1CC1", "note": "(stereo not drawn)", "activation": "inactive: 7.08%"}, {"compound": "CC(C)NC(=O)CCN1C(=O)c2ccccc2Sc2ncccc21", "activation": "inactive: -5.04%"}, {"compound": "Cc1ccc(NC(=O)Cn2nnc(C(=O)NCc3ccc4c(c3)OCO4)c2N)cc1Cl", "activation": "inactive: 0.594%"}, {"compound": "COc1ccc2oc(=O)c(-c3nc(-c4cccs4)no3)cc2c1", "activation": "inactive: -13.3%"}, {"compound": "CCc1ccc(NC(=O)Cn2cc(S(=O)(=O)N3CCCC3)c(S(=O)(=O)N3CCCC3)c2)cc1", "activation": "inactive: -7.16%"}, {"compound": "CC(=O)c1ccc(OCC(=O)N2CCCCC2)cc1", "activation": "inactive: -33.2%"}, {"compound": "Cc1cc(C)cc(NC(=O)CCCc2nc(-c3ccccc3Cl)no2)c1", "activation": "inactive: -12.6%"}, {"compound": "CSc1nc2sc3c(c2c(=O)n1-c1ccccc1)CCC(C(C)(C)C)C3", "note": "(stereo not drawn)", "activation": "inactive: -7.4%"}]}]}
